Assay: soluble on expression in E. coli; label from the status in PepcDB or PDB records

Row | Sequence | soluble on expression in E. coli
1 | MQEQYRPEEIESKVQLHWDEKRTFEVTEDESKEKYYCLSMLPYPSGRLHMGHVRNYTIGDVIARYQRMLGKNVLQPIGWDAFGLPAEGAAVKNNTAPAPWTYDNIAYMKNQLKMLGFGYDWSRELATCTPEYYRWEQKFFTELYKKGLVYKKTSAVNWCPNDQTVLANEQVIDGCCWRCDTKVERKEIPQWFIKITAYADELLNDLDKLDHWPDTVKTMQRNWIGRSEGVEITFNVNDYDNTLTVYTTRPDTFMGCTYLAVAAGHPLAQKAAENNPELAAFIDECRNTKVAEAEMATMEKKGVDTGFKAVHPLTGEEIPVWAANFVLMEYGTGAVMAVPGHDQRDYEFASKYGLNIKPVILAADGSEPDLSQQALTEKGVLFNSGEFNGLDHEAAFNAIADKLTAMGVGERKVNYRLRDWGVSRQRYWGAPIPMVTLEDGTVMPTPDDQLPVILPEDVVMDGITSPIKADPEWAKTTVNGMPALRETDTFDTFMESSWYYARYTCPQYKEGMLDSEAANYWLPVDIYIGGIEHAIMHLLYFRFFHKLMRDAGMVNSDEPAKQLLCQGMVLADAFYYVGENGERNWVSPVDAIVERDEKGRIVKAKDAAGHELVYTGMSKMSKSKNNGIDPQVMVERYGADTVRLFMMFASPADMTLEWQESGVEGANRFLKRVWKLVYEHTAKGDVAALNVDALTENQKALRRDVHKTIAKVTDDIGRRQTFNTAIAAIMELMNKLAKAPTDGEQDRALMQEALLAVVRMLNPFTPHICFTLWQELKGEGDIDNAPWPVADEKAMVEDSTLVVVQVNGKVRAKITVPVDATEEQVRERAGQEHLVAKYLDGVTVRKVIYVPGKLLNLVVG | soluble
2 | SSVALIVGVTGIIGNSLAEILPLADTPGGPWKVYGVARRTRPAWHEDNPINYVQCDISDPDDSQAKLSPLTDVTHVFYVTWANRSTEQENCEANSKMFRNVLDAVIPNCPNLKHISLQTGRKHYMGPFESYGKIESHDPPYTEDLPRLKYMNFYYDLEDIMLEEVEKKEGLTWSVHRPGNIFGFSPYSMMNLVGTLCVYAAICKHEGKVLRFTGCKAAWDGYSDCSDADLIAEHHIWAAVDPYAKNEAFNVSNGDVFKWKHFWKVLAEQFGVECGEYEEGVDLKLQDLMKGKEPVWEEIVRENGLTPTKLKDVGIWWFGDVILGNECFLDSMNKSKEHGFLGFRNSKNAFISWIDKAKAYKIVP | soluble

Source: the DeepSol protein solubility set
